Data reported in article PMC5681660, “Reduced hepatitis B and D viral entry using clinically applied drugs as novel inhibitors of the bile acid transporter NTCP” (Scientific Reports, 2017).
Counter-ions that a name gives are not always drawn. Like-named read-outs stand apart in the source and are kept apart here.

Columns and labels:
[1] = biological target: T1, human NTCP (Homo sapiens, UniProt Q14973); experiment: Screening taurocholate uptake assay (96-well, [14C]taurocholate, 10 µM drug); settings: for remaining activity at 10 µM: 10 min, read-out: %NTCP activity
T1 sequence (Q14973 1-349): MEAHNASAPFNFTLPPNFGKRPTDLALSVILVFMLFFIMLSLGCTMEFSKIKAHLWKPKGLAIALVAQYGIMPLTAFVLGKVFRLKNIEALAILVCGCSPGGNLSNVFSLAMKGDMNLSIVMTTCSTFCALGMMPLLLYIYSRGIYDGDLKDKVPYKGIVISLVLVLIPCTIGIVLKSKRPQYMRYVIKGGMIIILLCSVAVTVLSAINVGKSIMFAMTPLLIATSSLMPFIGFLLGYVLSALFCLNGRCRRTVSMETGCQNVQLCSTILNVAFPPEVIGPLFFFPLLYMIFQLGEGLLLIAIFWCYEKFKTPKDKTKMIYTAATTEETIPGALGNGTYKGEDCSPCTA

[2] = biological target: T1, human NTCP; experiment: Screening fluorescent competitive Myrcludex B-FITC binding assay (96-well, 10 µM drug); settings: for remaining activity at 10 µM: 0.5 h
[3] = read-out: %NTCP binding, screen, 10 µM drug, Myrcludex B-FITC binding
[4] = screen, 10 µM drug, Myrcludex B-FITC binding
[5] = read-out: %NTCP binding, Prestwick library screen, Myrcludex B-FITC binding, 10 µM drug

Compound	remaining activity at 10 µM [1] [%]	remaining activity at 10 µM ([2]; read-out: %NTCP binding) [%]	further results
O=C(CCCN1CCC(n2c(O)nc3ccccc32)CC1)c1ccc(F)cc1 [Benperidol]	60.2	–	remaining activity at 10 µM [2, 3]: 77.2%
CC(C)C(=O)Nc1ccc([N+](=O)[O-])c(C(F)(F)F)c1 [Flutamide]	91.1	63.5	–
CN(C)c1ccc(O)c2c1C[C@H]1C[C@H]3[C@H](N(C)C)C(O)=C(C(N)=O)C(=O)[C@@]3(O)C(O)=C1C2=O [Minocycline hydrochloride]	48.6	78.2	–
CCCCC(CC)CN1CN(CC(CC)CCCC)CC(C)(N)C1 (centres unmarked) [Hexetidine]	114	71.5	–
CC(C)c1c(CN(C)C(C)Cc2ccccc2)n(C)n(-c2ccccc2)c1=O (centres unmarked) [Famprofazone]	88.9	–	remaining activity at 10 µM [2, 3]: 75.7%
COc1ccc(CN2CCN(C(c3ccc(F)cc3)c3ccc(F)cc3)CC2)c(OC)c1OC.Cl.Cl [Lomerizine hydrochloride]	–	–	%NTCP activity [1]: 101.368%; %NTCP binding [2, 4]: 52.918%
CC(=O)Nc1c(I)c(C(=O)N[C@H]2C(O)O[C@H](CO)[C@@H](O)[C@@H]2O)c(I)c(N(C)C(C)=O)c1I (some centres unmarked) [Metrizamide]	51.5	63.2	–
CCCOc1ccc(C(=O)OCCN(CC)CC)cc1N [Proparacaine hydrochloride]	59.9	87.5	–
CC(C)NC[C@@H](O)COc1cccc2ccccc12.Cl [(R)-Propranolol hydrochloride]	–	–	%NTCP activity [1]: 79.9127%; %NTCP binding [2]: 84.3247%
COc1ccc(-c2cc(=S)ss2)cc1 [Anethole-trithione]	68.9	–	remaining activity at 10 µM [2, 5]: 76.1%
CC(=O)O[C@H]1C[C@@H]2CC[C@@H]3[C@H](CC[C@@]4(C)[C@H]3C[C@H]([N+]3(C)CCCCC3)[C@@H]4OC(C)=O)[C@@]2(C)C[C@@H]1[N+]1(C)CCCCC1 [Pancuronium bromide]	115	–	remaining activity at 10 µM [2, 5]: 83.3%
CC(=O)c1ccc(S(=O)(=O)NC(=O)NC2CCCCC2)cc1 [Acetohexamide]	110	111	–
CC(=O)N1CCN(c2ccc(OCC3COC(Cn4ccnc4)(c4ccc(Cl)cc4Cl)O3)cc2)CC1 (centres unmarked) [Ketoconazole]	66.4	–	remaining activity at 10 µM [2, 3]: 32.8%
CC(=O)OCC(=O)NCCCOc1cccc(CN2CCCCC2)c1 [Roxatidine Acetate HCl]	37.2	–	remaining activity at 10 µM [2, 3]: 80.3%
COc1ncnc(NS(=O)(=O)c2ccc(N)cc2)c1OC [Sulfadoxine]	86	105	–
CN(C)CCC=C1c2ccccc2CCc2ccccc21.Cl [Amitryptiline hydrochloride]	–	–	%NTCP activity [1]: 157.363%; %NTCP binding ([2]; Prestwick library screen, Myrcludex B-FITC binding, 10 µM drug): 108.742%
CCCc1nc(C)c2c(=O)[nH]c(-c3cc(S(=O)(=O)N4CCN(CC)CC4)ccc3OCC)nn12 [Vardenafil]	115	104	–
Cc1c(N(C)C)c(=O)n(-c2ccccc2)n1C [Amidopyrine]	–	–	%NTCP activity ([1]; screen, 10 µM drug, [14C]taurocholate uptake): 57.5072%; %NTCP binding [2, 4]: 76.5515%
COC1=C(OC)C(=O)C(CCCCCCCCCCO)=C(C)C1=O [Idebenone]	59.2	61.5	–
CC(C)(C)C(=O)OCOC(=O)[C@@H]1N2C(=O)[C@@H](/N=C/N3CCCCCC3)[C@H]2SC1(C)C [Pivmecillinam hydrochloride]	117	85.9	–
CCCCc1ccc2[nH]c(NC(=O)OC)nc2c1 [Parbendazole]	103	–	remaining activity at 10 µM ([2]; read-out: %NTCP binding, Prestwick library screen, 10 µM drug, Myrcludex B-FITC binding): 80.9%
CN[C@@H]1[C@@H](O)[C@@H](O[C@@H]2[C@@H](O)[C@H](O[C@H]3OC(CN)=CC[C@H]3N)[C@@H](N)C[C@H]2N)OC[C@]1(C)O [Sisomicin sulfate]	31.8	80.2	–
CCC(C)n1ncn(-c2ccc(N3CCN(c4ccc(OCC5COC(Cn6cncn6)(c6ccc(Cl)cc6Cl)O5)cc4)CC3)cc2)c1=O (centres unmarked) [Itraconazole]	115	87.4	–
O=C(N[C@H](CO)[C@H](O)c1ccc([N+](=O)[O-])cc1)C(Cl)Cl [Chloramphenicol]	138	106	–
Nc1nc(O)c2ncn(COC(CO)CO)c2n1 [Ganciclovir]	87	109	–
CN1C(C)(C)CCCC1(C)C [Pempidine tartrate]	82.4	80.7	–
CC(=O)OCC1=C(C(=O)O)N2C(=O)[C@@H](NC(=O)Cc3cccs3)[C@H]2SC1 [Cephalothin sodium salt]	126	76.7	–
C[C@@H]1C[C@@H]([C@H](O)CC2CC(=O)NC(=O)C2)C(=O)[C@@H](C)C1 [Cycloheximide]	96.3	85.1	–
CCCCC(=O)N(Cc1ccc(-c2ccccc2-c2nnn[nH]2)cc1)[C@H](C(=O)O)C(C)C [Valsartan]	114	78	–

Now from value to molecule, other results behind:

remaining activity at 10 µM [1] [%]	remaining activity at 10 µM ([2]; read-out: %NTCP binding) [%]	Compound	further results
101	76.9	O=C1Cc2cc(CCN3CCN(c4nsc5ccccc45)CC3)c(Cl)cc2N1 [Ziprasidone Hydrochloride]	–
88.3	84.6	Oc1c(Cl)cc(Cl)c2cccnc12 [Chloroxine]	–
103	113	CC(C)[N+](C)(CCOC(=O)C1c2ccccc2Oc2ccccc21)C(C)C [Propantheline bromide]	–
76.2	86.3	CCC1(c2ccccc2)C(=O)NCNC1=O [Primidone]	–
115	117	CCc1nc(N)nc(N)c1-c1ccc(Cl)cc1 [Pyrimethamine]	–
57.3	89.6	COc1ccc([C@@H]2Sc3ccccc3N(CCN(C)C)C(=O)[C@@H]2OC(C)=O)cc1 [Diltiazem hydrochloride]	–
50.5	70.3	CN(C)CCCOc1nn(Cc2ccccc2)c2ccccc12 [Benzydamine hydrochloride]	–
91	95.3	Fc1ccc([C@@H]2CCNC[C@H]2COc2ccc3c(c2)OCO3)cc1 [Paroxetine Hydrochloride]	–
79.2	113	O=C(O)c1cc(=O)c2c(OCC(O)COc3cccc4oc(C(=O)O)cc(=O)c34)cccc2o1 [Cromolyn disodium salt]	–
44.5	86.7	c1ccc(CN(CC2=NCCN2)c2ccccc2)cc1 [Antazoline hydrochloride]	–
108	70	CC(CNC1CCCCC1)OC(=O)c1ccccc1 (centres unmarked) [Hexylcaine hydrochloride]	–
113	83.8	CC(C)(C)NC[C@H](O)COc1ccccc1C1CCCC1 [Penbutolol sulfate]	–
86.4	105	COc1ccccc1Oc1c(NS(=O)(=O)c2ccc(C(C)(C)C)cc2)nc(-c2ncccn2)nc1OCCO [Bosentan]	–
85.1	66.9	NCCCC[C@H](N[C@@H](CCc1ccccc1)C(=O)O)C(=O)N1CCC[C@H]1C(=O)O [Lisinopril]	–
